The list shows a part of the results.

The chains are these.
B1: PhoQ; a variant is named by its letters at X, in order, P23837 (parent)
chain: MKKLLRLFFPLSLRVRFLLATAAVVLVLSLAYGMVALIGYSVSFDKTTFRLLRGESNLFYTLAKWENNKLHVELPENIDKQSPTMTLIYDENGQLLWAQRDVPWLMKMIQPDWLKSNGFHEIEADVNDTSLLLSGDHSIQQQLQEVREDDDDAEMTHSVAVNVYPATSRMPKLTIVVVDTIPVELKSSYMVWSWFIYVLSANLLLVIPLLWVAAWWSLRPIEALAKEVRELEEHNRELLNPATTRELTSLVRNLNRLLKSERERYDKYRTTLTDLTHSLKTPLXXLQXXLRSLRSEKMSVSDAEPVMLEQISRISQQIGYYLHRASMRGGTLLSRELHPVAPLLDNLTSALNKVYQRKGVNISLDISPEISFVGEQNDFVEVMGNVLDNACKYCLEFVEISARQTDEHLYIVVEDDGPGIPLSKREVIFDRGQRVDTLRPGQGVGLAVAREITEQYEGKIVAGESMLGGARMEVIFGRQHSAPKDE

In this experiment the parent is B1. Put plainly: enrichment ratio after two sorts for PhoP signalling (ratio (wild type AVST 3.29)); higher = more functional. The settings on record: with PhoP (E. coli).
GDAI: the enrichment ratio is 9.76.
The figure for ILPQ is at most 0.25; for FIIP it is at most 0.25; for WITN it is at most 0.25.
The figure for NEAF is at most 0.25; for SQQS it is at most 0.25.
As to PSIW, the enrichment ratio was at most 0.25.
As for GQHG, the enrichment ratio was at most 0.25.
The figure for FEFY is at most 0.25; for RMIQ it is at most 0.25; for DLEW it is at most 0.25.
To KRSW belongs at most 0.25; to KLFR, at most 0.25.
The figure for SKTY is at most 0.25; for KKDP it is at most 0.25.
As for FPCK, the enrichment ratio was at most 0.25.
The figure for CITH is at most 0.25; for ESYW it is at most 0.25; for PCSN it is at most 0.25.
Take WSPS: the enrichment ratio was at most 0.25.
In the case of VIPE, the enrichment ratio is at most 0.25.
The figure for DMAF is at most 0.25.
The figure for VFIW is at most 0.25; for PVCV it is at most 0.25.
The figure for VHTN is at most 0.25; for NQWI it is at most 0.25; for RQIW it is at most 0.25.
For the variant FQPH, the enrichment ratio is at most 0.25.
For the variant TTIS, the enrichment ratio is 0.969.
On to VFAI, for which the enrichment ratio is 0.456.
The figure for FINT is at most 0.25; for YKRE it is at most 0.25; for FCHR it is at most 0.25.
For the variant VTEP, the enrichment ratio was at most 0.25.
The figure for ICRT is at most 0.25.
To SNLC belongs 11.3; to KRRQ, at most 0.25; to FANP, at most 0.25.
The figure for FRPL is at most 0.25; for WLPS it is at most 0.25.
Take VMDY: the enrichment ratio was at most 0.25.
Take QEPV: the enrichment ratio was at most 0.25.
The figure for YCKS is 0.866.
The figure for QSEC is at most 0.25.
The figure for VYMI is at most 0.25; for DGLI it is at most 0.25; for WDQP it is at most 0.25.
For the variant RIGP, the enrichment ratio was at most 0.25.
The figure for MYKV is at most 0.25.
To RAKH belongs at most 0.25; to VGMM, 8.27.
The figure for VNVP is at most 0.25; for CVQS it is at most 0.25.
For the variant RPDL, the enrichment ratio was at most 0.25.
The figure for SSTP is at most 0.25; for YDAQ it is at most 0.25; for VRME it is at most 0.25.
To AEQF belongs at most 0.25.
With GLAL, the enrichment ratio was determined as 12.9.
To VPDI belongs at most 0.25; to YCLD, at most 0.25; to VQMS, at most 0.25.
To LHNG belongs at most 0.25; to LFMS, at most 0.25.
The figure for RSRR is at most 0.25.
For FLYI, the enrichment ratio is at most 0.25.
With QMKT, the enrichment ratio is at most 0.25.
To VTHT belongs at most 0.25; to LQDC, at most 0.25; to VQKT, at most 0.25.
To HIFN belongs at most 0.25; to VQNN, at most 0.25; to KCTD, at most 0.25.
To ISVQ belongs at most 0.25; to PLFK, at most 0.25.
HIPY: the enrichment ratio is at most 0.25.
The figure for IVFV is at most 0.25.
As to GHRP, the enrichment ratio is at most 0.25.
To LHSQ belongs at most 0.25; to IKLM, at most 0.25.
The figure for RLKC is at most 0.25; for VGLC it is 16.6; for KQMG it is at most 0.25.
To EPYD belongs at most 0.25.
Regarding LWIA, the enrichment ratio is at most 0.25.
The figure for YPFE is at most 0.25; for SNRN it is at most 0.25; for VPGL it is at most 0.25.
The figure for NPGN is at most 0.25.
The figure for TNAK is at most 0.25.
As to RINA, the enrichment ratio is at most 0.25.
The figure for ITKK is at most 0.25; for HTQK it is at most 0.25; for ACWR it is at most 0.25.
To IYNR belongs at most 0.25; to GHCI, at most 0.25.
Take MVNT: the enrichment ratio was at most 0.25.
The figure for STIK is 4.61; for HTLT it is at most 0.25; for QKPI it is at most 0.25.
To QDCS belongs at most 0.25.
Turning to LFKF, the enrichment ratio was at most 0.25.
The figure for LEGE is at most 0.25; for YERF it is at most 0.25.
To SFDQ belongs at most 0.25.
The figure for AGAW is at most 0.25; for YQKG it is at most 0.25; for SGTS it is 7.16.
For PGMK, the enrichment ratio is at most 0.25.
As to MTKP, the enrichment ratio is at most 0.25.
The figure for TPHR is 0.681; for PDAI it is at most 0.25; for LKGY it is at most 0.25.
To CMAC belongs 23.4.
The figure for LFMQ is at most 0.25.
Turning to PSLA, the enrichment ratio was at most 0.25.
To HKDV belongs at most 0.25.
To HRYS belongs at most 0.25; to GGPD, at most 0.25; to THEI, at most 0.25.
The figure for EVFH is at most 0.25; for MGRC it is at most 0.25.
Take MPPH: the enrichment ratio is at most 0.25.
In the case of WFMM, the enrichment ratio was at most 0.25.
The figure for KCCF is at most 0.25; for SKQK it is at most 0.25; for RFIE it is at most 0.25.
The figure for AFYI is at most 0.25.
Turning to SNAE, the enrichment ratio came to 7.95.
The figure for VMAG is at most 0.25.
With WRFG, the enrichment ratio is at most 0.25.
To NRMP belongs at most 0.25.
Regarding FWQE, the enrichment ratio was at most 0.25.
To NVAH belongs at most 0.25; to IPML, at most 0.25; to GWAF, at most 0.25.
To DYCQ belongs at most 0.25.
TNWQ: the enrichment ratio was at most 0.25.
To QCRP belongs at most 0.25.
Take HAGT: the enrichment ratio is at most 0.25.
The figure for NRYP is at most 0.25; for HGRL it is at most 0.25.
The figure for QYID is at most 0.25; for WSDG it is at most 0.25.
Regarding TKAF, the enrichment ratio was at most 0.25.
The figure for RFSV is at most 0.25; for QPLS it is at most 0.25; for SMDI it is at most 0.25.
To KMIL belongs at most 0.25; to ITVD, at most 0.25.
Consider ESFD, for which the enrichment ratio was at most 0.25.
To NDSY belongs at most 0.25.
Regarding YQTQ, the enrichment ratio is at most 0.25.
The figure for KDGG is at most 0.25.
To ICST belongs at most 0.25.
To LKEM belongs at most 0.25; to QLQM, at most 0.25; to YWWL, at most 0.25.
Turning to RACQ, the enrichment ratio is at most 0.25.
The figure for WEAN is at most 0.25; for DFYQ it is at most 0.25.
The figure for MPFF is at most 0.25; for SWVH it is at most 0.25; for TMYF it is at most 0.25.
MQPY: the enrichment ratio was at most 0.25.
The figure for WERF is at most 0.25; for KAAY it is at most 0.25; for DTHC it is at most 0.25.
Take NSGV: the enrichment ratio was at most 0.25.
The figure for TAVF is at most 0.25; for AYNN it is at most 0.25.
To QMCW belongs at most 0.25; to WMRW, at most 0.25.
To PINP belongs at most 0.25; to DSSP, at most 0.25.
In the case of EEYR, the enrichment ratio was at most 0.25.
Turning to TMQQ, the enrichment ratio was 5.11.
To LEYQ belongs at most 0.25.
The figure for EFYR is at most 0.25.
To EDPK belongs at most 0.25.
Regarding FRYR, the enrichment ratio is at most 0.25.
Turning to MNMC, the enrichment ratio was determined as 3.1.
As for QHRR, the enrichment ratio was at most 0.25.
To YDAE belongs at most 0.25; to TLLI, 0.644; to TCLS, 7.88.
To WSQG belongs at most 0.25; to FSQW, at most 0.25.
To HMCR belongs at most 0.25; to GVAS, 0.335.
For ITTR, the enrichment ratio was at most 0.25.
To FRFE belongs at most 0.25; to QAHD, at most 0.25.
To DERP belongs at most 0.25; to LAWG, at most 0.25.

The values are drawn from a collection of fitness landscapes (doi:10.1126/science.1257360).
